# Measurements taken from the supplement of paper PMC8728848.
# The list shows a part of the results.
# Legend:
# Experiment in all cases: glycan array binding signal (z-score within array); higher = stronger binding
# Details in all cases: glycan notation: IUPAC condensed, linker removed
# [1] = biological target: Neu5Ac(a2-6)Gal(b1-4)GlcNAc(b1-2)Man(a1-3)[GlcNAc(b1-2)Man(a1-6)]Man(b1-4)GlcNAc(b1-4)GlcNAc
# How it was run: (§1)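 Glycan array data were curated from 3228 arrays in the Consortium for Functional Glycomics database and kept only where the protein sequence was available. Glycan names were converted to IUPAC-condensed notation, and columns mapping to the same glycan were averaged. The binding signal is a within-array Z-score, averaged across arrays of the same protein sequence at different concentrations or buffers and across linkers. Negative Z-scores can be read as non-binding.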
# [2] = biological target: Neu5Ac(a2-6)Gal(b1-4)GlcNAc(b1-2)Man(a1-3)[GlcNAc(b1-2)Man(b1-4)GlcNAc(b1-2)Man(a1-6)]Man(b1-4)GlcNAc(b1-4)GlcNAc
# How it was run: as §1
# [3] = biological target: Neu5Ac(a2-6)Gal(b1-4)GlcNAc(b1-2)Man(a1-3)[Man(a1-6)]Man(b1-4)GlcNAc(b1-4)GlcNAc
# How it was run: as §1
# [4] = biological target: Neu5Ac(a2-6)Gal(b1-4)GlcNAc(b1-2)Man(a1-3)[Neu5Ac(a2-6)Gal(b1-4)GlcNAc(b1-2)Man(a1-6)]Man(b1-4)GlcNAc(b1-4)GlcNAc
# How it was run: as §1
# [5] = biological target: Neu5Ac(a2-6)Gal(b1-4)GlcNAc(b1-2)Man(a1-6)Man(b1-4)GlcNAc(b1-4)GlcNAc
# How it was run: as §1
# [6] = biological target: Neu5Ac(a2-6)Gal(b1-4)GlcNAc(b1-2)Man(a1-6)[Gal(b1-4)GlcNAc(b1-2)Man(a1-3)]Man(b1-4)GlcNAc(b1-4)GlcNAc
# How it was run: as §1
# [7] = biological target: Neu5Ac(a2-6)Gal(b1-4)GlcNAc(b1-2)Man(a1-6)[GlcNAc(b1-2)Man(a1-3)]Man(b1-4)GlcNAc(b1-4)GlcNAc
# How it was run: as §1
# [8] = biological target: Neu5Ac(a2-6)Gal(b1-4)GlcNAc(b1-2)Man(a1-6)[Man(a1-3)]Man(b1-4)GlcNAc(b1-4)GlcNAc
# How it was run: as §1
# [9] = biological target: Neu5Ac(a2-6)Gal(b1-4)GlcNAc(b1-3)Gal(b1-3)GlcNAc
# How it was run: as §1
# [10] = biological target: Neu5Ac(a2-6)Gal(b1-4)GlcNAc(b1-3)Gal(b1-4)GlcNAc
# How it was run: as §1
# [11] = biological target: Neu5Ac(a2-6)Gal(b1-4)GlcNAc(b1-3)Gal(b1-4)GlcNAc(b1-3)Gal(b1-4)GlcNAc
# How it was run: as §1
# [12] = biological target: Neu5Ac(a2-6)Gal(b1-4)GlcNAc(b1-3)Gal(b1-4)[Fuc(a1-3)]GlcNAc(b1-3)Gal(b1-4)[Fuc(a1-3)]GlcNAc
# How it was run: as §1
# [13] = biological target: Neu5Ac(a2-6)Gal(b1-4)GlcNAc(b1-3)GalNAc
# How it was run: as §1
# [14] = biological target: Neu5Ac(a2-6)Gal(b1-4)GlcNAc6S
# How it was run: as §1
# [15] = biological target: Neu5Ac(a2-6)GalNAc
# How it was run: as §1
# [16] = biological target: Neu5Ac(a2-6)GalNAc(b1-4)GlcNAc
# How it was run: as §1
# [17] = biological target: Neu5Ac(a2-6)GlcNAc(b1-4)GlcNAc
# How it was run: as §1
# [18] = biological target: Neu5Ac(a2-6)GlcNAc(b1-4)GlcNAc(b1-4)GlcNAc
# How it was run: as §1
# [19] = biological target: Neu5Ac(a2-8)Neu5Ac
# How it was run: as §1
# [20] = biological target: Neu5Ac(a2-8)Neu5Ac(a2-3)Gal(b1-3)GalNAc(b1-4)[Neu5Ac(a2-8)Neu5Ac(a2-3)]Gal(b1-4)Glc
# How it was run: as §1
# [21] = biological target: Neu5Ac(a2-8)Neu5Ac(a2-3)Gal(b1-4)Glc
# How it was run: as §1
# [22] = biological target: Neu5Ac(a2-8)Neu5Ac(a2-3)[Gal(b1-3)GalNAc(b1-4)]Gal(b1-4)Glc
# How it was run: as §1
# [23] = biological target: Neu5Ac(a2-8)Neu5Ac(a2-3)[GalNAc(b1-4)]Gal(b1-4)Glc
# How it was run: as §1
# [24] = biological target: Neu5Ac(a2-8)Neu5Ac(a2-8)Neu5Ac
# How it was run: as §1
# [25] = biological target: Neu5Ac(a2-8)Neu5Ac(a2-8)Neu5Ac(a2-3)Gal(b1-4)Glc
# How it was run: as §1
# [26] = biological target: Neu5Ac(a2-8)Neu5Ac(a2-8)Neu5Ac(a2-3)[GalNAc(b1-4)]Gal(b1-4)Glc
# How it was run: as §1
# [27] = biological target: Neu5Ac(a2-8)Neu5Ac(a2-8)Neu5Ac(a2-8)Neu5Ac(a2-3)[GalNAc(b1-4)]Gal(b1-4)Glc
# How it was run: as §1
# [28] = biological target: Neu5Ac(b2-6)Gal(b1-4)GlcNAc
# How it was run: as §1
# [29] = biological target: Neu5Ac(b2-6)GalNAc
# How it was run: as §1
# [30] = biological target: Neu5Ac9Ac(a2-3)Gal(b1-3)GlcNAc
# How it was run: as §1
binder,measurement,setting,value
"NanI (Corynebacterium diphtheriae), C6JSW7 (protein) MTNTLESNPMTTTTGALTITFATTCDGPLAHIPHHLDLNIIHGRIQGTTAHRRIDAEDPDGLDDGLPHHLCLSVDTTGTHLFIDGYEAFSTTQTEWFDTSELTLNPHGDLTIIDHQILNHAPTPRQARNLAPAAEPLVWFAGSHLSTRDTQRISHLTHGSLRLLMKTRGTGQGGVAFQAHTINGDLTLEIIDGTLIFSVRCHDEDYVRITAPGRWDDGQIYDVVIVCGRGATDIYVDGQQLIHSPGAAFFNDLSGELSVHIGTAASGVRLFGEVQSGMIYPHVFNHHQVQRLATVEPIATQALFDCLLDGAQSYRIPSLITTDSGVIIAGADKRVSIANDAPNDIDFVLRRSVDGGRTWQPPRTILQLPDTACVTDSVLLQDHTTGRIFAFLDQFPAGIGQPNAAFGTGFDADGNRIGHFADGSTCTMPREVDQLEASFFSDPHTAPPGIVFQHPSCHLWMLTSDDDGLTWSTPRDLTPDVKEEWMRFCGTSPGNGIQLQRDTHAGRLLIPMYYTKGDQFFAAALYSDDHGDTWHRGESPDLEMYESTLVEASDGSVLLWARNQHPSGAVAHARSTDGGHSWSQVTFNPNVPEIFSQPNALRVTNPDGIIFANASQLLPFRGRGVLRMSTNDGASWQHNRVFNPRHYVYQCMTQLPDGSIGLLWEREMQGLFFSIIPMTWIMQGYAL",glycan array binding signal (z-score),[1],0.216
same,glycan array binding signal (z-score),[2],1.58
same,glycan array binding signal (z-score),[3],-0.536
same,glycan array binding signal (z-score),[4],0.411
same,glycan array binding signal (z-score),[5],-0.415
same,glycan array binding signal (z-score),[6],0.527
same,glycan array binding signal (z-score),[7],-0.653
same,glycan array binding signal (z-score),[8],-0.675
same,glycan array binding signal (z-score),[9],-0.501
same,glycan array binding signal (z-score),[10],-0.526
same,glycan array binding signal (z-score),[11],-0.846
same,glycan array binding signal (z-score),[12],-0.073
same,glycan array binding signal (z-score),[13],-0.58
same,glycan array binding signal (z-score),[14],1.06
same,glycan array binding signal (z-score),[15],-0.157
same,glycan array binding signal (z-score),[16],-0.085
same,glycan array binding signal (z-score),[17],0.019
same,glycan array binding signal (z-score),[18],-0.157
same,glycan array binding signal (z-score),[19],-0.202
same,glycan array binding signal (z-score),[20],-0.299
same,glycan array binding signal (z-score),[21],-0.109
same,glycan array binding signal (z-score),[22],1.2
same,glycan array binding signal (z-score),[23],-0.435
same,glycan array binding signal (z-score),[24],-0.456
same,glycan array binding signal (z-score),[25],-1.11
same,glycan array binding signal (z-score),[26],0.332
same,glycan array binding signal (z-score),[27],-0.376
same,glycan array binding signal (z-score),[28],-0.364
same,glycan array binding signal (z-score),[29],0.225
same,glycan array binding signal (z-score),[30],-0.335
